{"source": "paper PMC12136788", "binders": {"B1": {"name": "chr1:60041781:60041782:+_ENSMUSG00000041040_ENSMUST00000036540|mus_hu|mus_mus_mus_hu_False|8_78 (ssRNA)", "RNA": "GGGAGUUCUACAGUCCGACGAUCAAGUUUACAAUAGUAAAGUAAAUGCAGUAGUGGAAUGGCAAGUUUUAUUUUCCUUCACAAAAGAAAAUCUUUAUAACCCAGUCCUAGUCUUGGACAUAGUGAAUCUCCAUGGGUCUGACUCAACAGAGGAUUGAGCAUCA"}, "B2": {"name": "chr9:37357388:37357389:+_ENSG00000147905_ENST00000336755|hu_mus|FALSE|FALSE (ssRNA)", "RNA": "GGGAGUUCUACAGUCCGACGAUCUGGACACAGACCUGAACUCUUUGUGGUCUCUGUACAGCCACUCCAGGCAUGGCCGGAACUCAGCAUUCAAUCCCAGCGUCUCAUUAACAGGUACUUAAGCACUUCCAGGACACUGAAGCGCAACAGAGGAUUGAGCAUCA"}, "B3": {"name": "chr18:47008509:47008510:-_ENSG00000177576_ENST00000318240|hu_hu|motif|central (ssRNA)", "RNA": "GGGAGUUCUACAGUCCGACGAUCCUGGCACAAACCUUCUAUUUAAUCAUAUUAUUCAAACAGCAAUAACAGAAAUGAAAGCGGCAUUAACGAAAAAGGAACUUAGGAAUGAGGUCAUUAAAUAUAACUAACUACAUUUUAAAUCAACAGAGGAUUGAGCAUCA"}, "B4": {"name": "chr9:95013113:95013114:-_ENSG00000196305_ENST00000443024|hu_hu|hu_hu_hu_mus_False|58_108 (ssRNA)", "RNA": "GGGAGUUCUACAGUCCGACGAUCCUCAGUGAGAAAAGGCGUGUAAGGGGCCAUCAGUCUGCACAGAGAAAGCAGGACACUAAACAAUGUCUCCAGAGCCAUGACACAGUCUUCCACCCCACUCUCACCCUUUAACCUCCUCCUCAACAGAGGAUUGAGCAUCA"}, "B5": {"name": "chr11:102150864:102150865:-_ENSMUSG00000059995_ENSMUST00000137387|mus_hu|motif|central (ssRNA)", "RNA": "GGGAGUUCUACAGUCCGACGAUCAAUUAGUACAGAACCCCCCCACACACACUCAGACACAGGAUACAGGGUGGACGACACCGGGCCGGGGUGGGAAGGAUGGGAAUUGAAACCCACACAGCCUGCUGUUAGAGGGAGGGGAGUCAACAGAGGAUUGAGCAUCA"}, "B6": {"name": "chr3:139076767:139076768:-_ENSG00000184432_ENST00000507777|hu_mus|FALSE|FALSE (ssRNA)", "RNA": "GGGAGUUCUACAGUCCGACGAUCACUUUAAUCAUCCAGAAUAUCUUCAUCCAGAUUAAUGUCUGUUGUGUCAAUAUCCUCUAAUUCCAAGUUAUCCAAAUCAACUUCUAGUUCUAGUAAACUCUUUUCUUCUUUGUGGGUAGUCAACAGAGGAUUGAGCAUCA"}, "B7": {"name": "chr9:108846149:108846150:+_ENSMUSG00000025651_ENSMUST00000026743|mus_hu|FALSE|FALSE (ssRNA)", "RNA": "GGGAGUUCUACAGUCCGACGAUCGCUCCCGGGUGCUGUAGGCAUUAAGAUGGGCCCCCAUGCUCUCCACCUCCUUCUCCAGGGCACUGCCAGGCCGAUUCUUUGUUCCCUUGAAAGCCAGAUGCUCCAAAAAGUAGCCUGCCCCAACAGAGGAUUGAGCAUCA"}, "B8": {"name": "chr8:95500983:95500984:-_ENSG00000164944_ENST00000437199|hu_hu|hu_hu_hu_mus_True|88_108 (ssRNA)", "RNA": "GGGAGUUCUACAGUCCGACGAUCAGAAGGAUUUUUACGAGUAAAGGGAGCGUACAUACGGCCUCUACCACUGCCUCCACUAACAAACUUUCCUCUCGAGCCUCCACUGCCGCUAUUUGUACUAGCCCAGGACGGUCCCAGGCCCAACAGAGGAUUGAGCAUCA"}, "B9": {"name": "4844558_4844678_1027_CDS_ENSG00000120158_ENST00000381750|human|control|control (ssRNA)", "RNA": "GGGAGUUCUACAGUCCGACGAUCGUAGAUUUCCUCCAGCAGCAGCCGGGCACAGUUCCUGCCAAGGUCCUCUGGAAGUACUGCUGCUCCCUGGCCCUGGGGGUUGGAGGCCAGUUCAGCACUGAGGAAGGUGCCACUGGUGGUCAACAGAGGAUUGAGCAUCA"}, "B10": {"name": "27431529_27433284_1818_CDS_ENSG00000033867_ENST00000419036|human|control|control (ssRNA)", "RNA": "GGGAGUUCUACAGUCCGACGAUCACGGAGGUAUAUCAAAUCAGGCUGAUGCUUAGCAGGCAUUCCAAAUAAUUUUAUACGGUCAAAUAACUGGAUUCCUUUUAAUGAGGAAACUCCCAUAUAAAGGAAAACACCAUACAGAACCAACAGAGGAUUGAGCAUCA"}, "B11": {"name": "97312720_97312840_91_3pUTR_ENSMUSG00000021669_ENSMUST00000077672|mouse|control|control (ssRNA)", "RNA": "GGGAGUUCUACAGUCCGACGAUCCACCUGAACUCGGCCCCCUAGAUGCCAACCUCAGUCAGGGAGGGAGGAGGGGAGGAAGACGGGAAGAGCCAAGCCAACGGCAGAGACCCAGAUCCACUCACUCACACCUCCGCUACAGCCCAACAGAGGAUUGAGCAUCA"}, "B12": {"name": "chr19:8913615:8913616:-_ENSMUSG00000071658_ENSMUST00000096259|mus_hu|mus_mus_mus_hu_False|88_88 (ssRNA)", "RNA": "GGGAGUUCUACAGUCCGACGAUCAGGGUACCAAAACCUUCUGCCUGAGAUAGGUGCCCCACCCAGUAGGGAGUUGCAGCUGAAAGUAUCUGAUGCAGAAGCAGUGACUAUACGAAAGGAGGCCCCUGGGGAGGGCCAGGCCAGCAACAGAGGAUUGAGCAUCA"}, "B13": {"name": "chr14:76904430:76904431:+_ENSMUSG00000022010_ENSMUST00000022587|mus_mus|mus_mus_mus_hu_True|8_8 (ssRNA)", "RNA": "GGGAGUUCUACAGUCCGACGAUCUGCAGCCAAAAACACCCUCGUGGAAAAAAAGAGGGAACACCAGCAGCCUUGUAUAAGCUAGAUAAAAUCUUCUGGCUUUCCGCAGCCCAGGGAGAAACAGAAAUGGUGCUGGCUAAUUUACAACAGAGGAUUGAGCAUCA"}, "B14": {"name": "chr19:8913615:8913616:-_ENSMUSG00000071658_ENSMUST00000096259|mus_hu|mus_mus_mus_hu_False|78_98 (ssRNA)", "RNA": "B12 RNA with C37A, U38C, U39C, G46C, G48A, A51G, A64U, U66C"}, "B15": {"name": "chr5:22970553:22970554:+_ENSMUSG00000029004_ENSMUST00000094962|mus_hu|FALSE|FALSE (ssRNA)", "RNA": "GGGAGUUCUACAGUCCGACGAUCAGCACUGGAAGUUUCAUCAAAAUUAGGAGUGGUAAAUAUGCCUACUUCAUUUUUGCUAAUAAGGACUGAUGGAGGAGGGGAAGCCGGAGGUGUCGGAGGAGGACGAGCACCAUAAUUAUGCAACAGAGGAUUGAGCAUCA"}, "B16": {"name": "chr7:140404665:140404666:+_ENSG00000090266_ENST00000247866|hu_hu|hu_hu_hu_mus_False|28_38 (ssRNA)", "RNA": "GGGAGUUCUACAGUCCGACGAUCUGCUCCUACUCGUCCAGAGAGUUUACAGUGUCAGUCCUCGUCAUCAGGAGGGAUUCCCAGUUCUUCAUCUGUCCACUGGGAAGGAUCAGGAUAUGAAAAGUGACCCAGCACAGCAUCCGACAACAGAGGAUUGAGCAUCA"}, "B17": {"name": "chr14:22612544:22612545:+_ENSMUSG00000021770_ENSMUST00000119430|mus_mus|motif|central (ssRNA)", "RNA": "GGGAGUUCUACAGUCCGACGAUCAGCCAAAUGCAACGUAUCCAGGAGCCUGGGACAAAGUAUUCAUUUUCAUUCCAUAACGGCUGUAUAUUUAACAACAAACUCAUUACAGAGAGAGAGUCUUCAUCCAAUUAGUCUUUUCAUCAACAGAGGAUUGAGCAUCA"}, "B18": {"name": "chr4:115894766:115894767:+_ENSMUSG00000028698_ENSMUST00000030464|mus_hu|mus_mus_mus_hu_True|1_108 (ssRNA)", "RNA": "GGGAGUUCUACAGUCCGACGAUCUUCACACGGAAAUUGUACUUCGGGUUUUCCAACGGCCAGUACCAGUCCGGCCAAACUACCCGAACAGGGUCCUCCCCCUCUCUCCUACAGAACACAACAAAAUGCCCCCGAACCCCGAACCAACAGAGGAUUGAGCAUCA"}, "B19": {"name": "chr4:17845017:17845018:+_ENSG00000109805_ENST00000514176|hu_mus|hu_hu_hu_mus_False|78_98 (ssRNA)", "RNA": "GGGAGUUCUACAGUCCGACGAUCGCUCUCUUAACUUGAUCUUCAUUUAAGGAACUCGCAAGGUUAAAGUUUACUUUUCUGUAGCGCAGCUGUUUUGGCUCGUCUGGGUAAUCUCAUCUUCAUUUCUGAUGGUGGUUCAUGAUCCAACAGAGGAUUGAGCAUCA"}, "B20": {"name": "chr19:8913615:8913616:-_ENSMUSG00000071658_ENSMUST00000096259|mus_hu|mus_mus_mus_hu_False|1_18 (ssRNA)", "RNA": "GGGAGUUCUACAGUCCGACGAUCAGGGUACCAAAACCUUCUGCCUGAAAUGGGUGCCCCACCCAGUAGGGAGUUGCAGCUGAAAGUAUCUGAUGCAGAAGCAGUGACUAUACGAAAGGUCACUAGAGGGGAGGGCCCGAGAUCCAACAGAGGAUUGAGCAUCA"}, "B21": {"name": "chrX:71025408:71025409:-_ENSMUSG00000002010_ENSMUST00000052761|mus_mus|motif|central (ssRNA)", "RNA": "GGGAGUUCUACAGUCCGACGAUCGAAUACUGCAUACACAUGGCCAUAGUUGGCCCCAGCCACAAGGCCUGGGCCUCCAACGGGCCCUGCACAGACGUUGUUGACAAUGUUACCAUAGAGAUUAGGCAUCACCAUGACAUCAAACAACAGAGGAUUGAGCAUCA"}, "B22": {"name": "6509843_6513729_1012_CDS_ENSMUSG00000033768_ENSMUST00000113458|mouse|control|control (ssRNA)", "RNA": "GGGAGUUCUACAGUCCGACGAUCGUUAUCAAAGUUUCCUGCCGGGUACCUCUCGUUGACUGGCCAGCUGUCCACUUGCAAGGUGGCAUUGCCACCACUUCGAGUAAAGCGCACCACGUGAUAUUUGCCGUCGCUCACGAUGGCCAACAGAGGAUUGAGCAUCA"}}, "note": "Substitutions are numbered along the chain they refer to. The list shows a part of the results.", "data": [{"molecular_target": "T1, UNK ZnF1-3 (human, UniProt Q9C0B0 31-174)", "T1 sequence": "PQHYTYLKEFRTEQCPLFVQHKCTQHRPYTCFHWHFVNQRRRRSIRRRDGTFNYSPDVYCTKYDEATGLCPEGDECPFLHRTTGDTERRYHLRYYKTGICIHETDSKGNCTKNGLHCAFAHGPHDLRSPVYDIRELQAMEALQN", "assay": "nsRBNS (natural sequence RNA bind-n-seq); RBNS binding buffer (assumed for nsRBNS): 25 mM Tris pH 7.5, 150 mM KCl, 3 mM MgCl2, 0.01% Triton X-100, 500 ug/ml BSA, 20 U/ml SUPERase-In, 4 C; UNK is unkempt and MSI1 is Musashi-1; names of the RNAs are library labels; protein concentration not given here; high values mean tight binding", "units": {"binding signal": "enrichment R"}, "values": [{"binder": "B1", "binding signal": 0.749}, {"binder": "B2", "binding signal": 1.04}, {"binder": "B3", "binding signal": 1.94}, {"binder": "B4", "binding signal": 1.6}, {"binder": "B5", "binding signal": 1.73}, {"binder": "B6", "binding signal": 0.427}, {"binder": "B7", "binding signal": 1.21}, {"binder": "B8", "binding signal": 1.16}, {"binder": "B9", "binding signal": 0.816}, {"binder": "B10", "binding signal": 0.837}, {"binder": "B11", "binding signal": 1.41}, {"binder": "B12", "binding signal": 1.18}, {"binder": "B13", "binding signal": 2.05}, {"binder": "B14", "binding signal": 1.52}, {"binder": "B15", "binding signal": 2.26}, {"binder": "B16", "binding signal": 1.7}, {"binder": "B17", "binding signal": 1.02}, {"binder": "B18", "binding signal": 1.03}, {"binder": "B19", "binding signal": 0.422}, {"binder": "B20", "binding signal": 1.32}, {"binder": "B21", "binding signal": 1.17}, {"binder": "B22", "binding signal": 0.894}]}]}
